Data published in PubChem BioAssay AID488896 (Broad Institute, 2010).
Several values for one entry are separate records, joined by “and”; a condition that tells them apart may be missing. Equal values may be shown once. Out of some 320,000 compounds screened, about 3,100 (0.97%) were called active. Inconclusive means that the source gave no clear call. Such entries were picked first, then a sample of the others.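 The calls were made as follows: active = mean replicate inhibition of at least 70% and a set share of replicates each scoring 70 or more; inconclusive = meets just one of the two criteria; inactive = fails both criteria.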

Target: Scavenger receptor class B member 1 (Mus musculus) (UniProt Q61009)
UniProt Q61009, sequence (Q61009 whole entry, looked up): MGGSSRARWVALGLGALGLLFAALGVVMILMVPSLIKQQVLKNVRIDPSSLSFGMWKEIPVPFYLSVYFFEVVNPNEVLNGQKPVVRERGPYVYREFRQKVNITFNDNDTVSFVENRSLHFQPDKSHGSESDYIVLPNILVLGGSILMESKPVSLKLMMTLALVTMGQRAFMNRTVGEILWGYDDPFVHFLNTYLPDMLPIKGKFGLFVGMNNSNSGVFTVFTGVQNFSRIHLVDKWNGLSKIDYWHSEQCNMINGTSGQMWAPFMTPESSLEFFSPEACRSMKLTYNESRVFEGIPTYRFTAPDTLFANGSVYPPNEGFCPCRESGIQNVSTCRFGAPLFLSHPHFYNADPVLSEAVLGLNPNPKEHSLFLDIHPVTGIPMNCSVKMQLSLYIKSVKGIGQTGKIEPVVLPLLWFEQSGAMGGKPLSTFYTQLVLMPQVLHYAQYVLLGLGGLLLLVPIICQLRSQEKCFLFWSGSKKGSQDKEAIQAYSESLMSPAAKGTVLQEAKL
Test: inhibitors of SR-BI mediated HDL lipid uptake, primary screen, ldlA[mSR-BI] cells, fluorescence, single point (AID 488896);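 also: 0% = median of neutral control wells and 100% = median of positive control wells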
Conditions: ldlA[mSR-BI] CHO cells, DiI-HDL uptake fluorescence, 3 h; at 12.5 µM; stronger effect = higher value

SMILES | inhibition
CCOc1ccc(C(=O)NC(=S)Nc2ccc(NC(=O)CC)cc2)cc1[N+](=O)[O-] | inconclusive: 71.1%
Cc1cc(C)cc(N=c2c([N+](=O)[O-])nn(-c3ccc(Cl)cc3)n2O)c1 | active: 80.3%
O=[N+]([O-])c1cc(CN2CCN(c3cccc(C(F)(F)F)c3)CC2)c2cccnc2c1O | inconclusive: 70.9%
COc1ccc(OC)c(C(=O)COC(=O)c2[nH]c(C)c(C(C)=O)c2C)c1 | inconclusive: 72.9%
CN(c1ccccc1)S(=O)(=O)c1ccc(Cl)c(C(=O)Nc2ccc(N3CCOCC3)cc2)c1 | inconclusive: 72.1%
CC(C)[C@H](NS(=O)(=O)c1ccccc1)C(=O)OCC(=O)Nc1cccc(S(N)(=O)=O)c1 | inactive: -3.12%
O=C(NCc1cn(-c2ccccc2)nc1-c1ccc(F)cc1)c1cccc([N+](=O)[O-])c1 | inconclusive: 71.3%
COc1cc(NC(=O)c2ccccc2Cl)ccc1NC(=O)c1ccco1 | active: 81.2%
O=C(O/N=C\c1ccc(N2CCCCC2)c([N+](=O)[O-])c1)c1ccc(Cl)cc1Cl | inconclusive: 75.3%
COc1ccccc1NC(=O)/C(C#N)=C/c1ccc(OCCN2CCOCC2)c(OC)c1 | inconclusive: 70.8%
COc1ccccc1C(=O)NCCNc1nc2cc(C)cc(C)c2cc1C#N | active: 110%
O=C(Nc1ccc2c(c1)OCCO2)c1cccc(C(=O)Nc2ccc3c(c2)OCCO3)c1 | inactive: 14.4%
CC(C)CNC(=O)c1cccc(NC(=O)c2ccc3c(c2)C(=O)N(C)C3=O)c1 | active: 81.1%
COc1ccc(NC(=O)c2sc3nc(-c4cccnc4)ccc3c2N)cc1 | inconclusive: 71.8%
CCOc1ccccc1/C=N/NC(=O)c1cccc(Cl)c1 | active: 86.1%
COc1ccc(-c2oc(=O)c3cc(OC)c(OC)cc3c2C#CCCCO)cc1 | active: 78.2%
C/C(CC1CC(C)OC1=O)=N\NC(N)=S (stereo not given) | inconclusive: 72.2%
Cc1cccc2c(SCC(=O)NCC3CCCO3)nc(-c3ccc(F)cc3)nc12 (stereo not given) | inconclusive: 70%
CCOC(=O)C1=C(COc2ccccc2)NC(=O)NC1c1ccc(Cl)cc1 (stereo not given) | inconclusive: 70.8%
CCn1c(COc2ccc(C)cc2)nc2ccccc21 | inactive: -11.3%
CCOc1ccc(NC(=O)CN(C)C(=O)c2sccc2-c2ccccc2)cc1OCC | inconclusive: 72.6%
CS(=O)(=O)c1cccc(-c2nnc(NC(=O)c3ccc(S(=O)(=O)N4CCCC4)cc3)o2)c1 | inactive: 2.28%

SMILES | inhibition
COc1cc(CCC(=O)Nc2ccc(C)c(S(=O)(=O)N3CCCCCC3)c2)cc(OC)c1OC | inconclusive: 71%
Cc1ccc(NC(=O)CN2CCCC2c2cccs2)cc1S(=O)(=O)N1CCCCC1 (stereo not given) | inconclusive: 70.5%
O=C(NCc1ccccc1)c1ccc(NC(=O)C2CCCCC2)cc1 | inconclusive: 71.3%
COc1ccccc1NC(=O)Nc1nc(CC(=O)N2CCN(c3ccc(F)cc3)CC2)cs1 | active: 76%
O=C(Nc1cccc(NC(=O)c2ccccc2[N+](=O)[O-])n1)c1ccccc1[N+](=O)[O-] | inconclusive: 70.7%
CCOC(=O)c1c(C)n(-c2ccc(C)cc2)c2c(CC(C)=O)c(Br)c(OC)c(O)c12 | active: 72.9%
C/C(CCc1ccc2c(c1)OCO2)=N\N=C1\NC(=O)CC(C(=O)Nc2ccccc2F)S1 (stereo not given) | active: 72.8%
COc1ccc([N+](=O)[O-])cc1NC(=O)CC(C)c1ccccc1 (stereo not given) | inconclusive: 73.5%
N#Cc1cc(-c2ccc(Cl)cc2)cnc1Sc1ccccc1 | inactive: 22.1%
COc1ccc2cc3cc(C(=O)NCCCN4CCC(C)CC4)oc3nc2c1 | inactive: 11.1%
COc1ccc(CNC(=O)CN(C)CC(=O)Nc2ccccc2Br)cc1 | inactive: 26%
O=C(Nc1ccc(-c2csc(-c3ccccc3)n2)cc1)c1ccccc1 | inconclusive: 71.7%
Cc1c(C(=O)N2CCc3ccccc3C2)sc2nc(-c3ccccc3)cn12 | inactive: 6.76%
CCCCCCc1ccc(N2C[C@H](CCCCC)[C@@H](CC(=O)NCc3ccccc3)C2=O)cc1 | inconclusive: 70.2%
O=C1CSC(=O)N1CC(O)COc1ccc(Cl)cc1 (stereo not given) | inactive: -7.45%
Cc1ccc(C(=O)N/N=C/c2ccc(OC(=O)c3ccccc3Cl)cc2)cn1 | inconclusive: 72.8%
CCOc1ccc2nc(NC(=O)c3cc([N+](=O)[O-])ccc3N3CCOCC3)sc2c1 | active: 78.1%
COc1cc(NC(=O)c2ccc3c(SCC(=O)O)c4c(nc3c2)CCCC4)cc(OC)c1OC | inactive: 18.9%
O=C(Nc1ccc2c(c1)OCCO2)c1cncc(Br)c1 | inactive: 2.5%
Cc1cccc(C)c1-n1c(C)cc(/C=N\Nc2ccc([N+](=O)[O-])cn2)c1C | active: 80.1%
COc1ccccc1N1CCN(C2CCCN(S(=O)(=O)c3cccc(Cl)c3)C2)CC1 (stereo not given) | inconclusive: 71.2%
COc1ccc(/C=N/NC(=O)Cc2csc(Nc3cccc(C(F)(F)F)c3)n2)c(OC)c1 | inconclusive: 71.4%

SMILES | inhibition
O=C(NNC1=C(C(=O)C(F)(F)F)CCC1)c1ccc(Cl)cc1 | active: 93.2%
Cc1cc([N+](=O)[O-])ccc1NC(=O)Nc1ccc(F)cc1F | inconclusive: 71.2%
CCOC(=O)CCCc1ccc(/C(C)=N/NC(N)=S)cc1 | inconclusive: 77.3%
CCCCCCC(=O)Nc1ccc(C(=O)N/N=C/c2cccnc2)cc1 | inconclusive: 76.1%
COc1ccc(-c2[nH]n(-c3ccc([N+](=O)[O-])cc3)c(=O)c2C=NCc2ccncc2)cc1 | inconclusive: 72.1%
COc1ccc(-c2nc(-c3cccc(C)c3)no2)cc1OC | inactive: 11.7%
O=C(Nc1cccc(-c2nc3ccccc3o2)c1)c1ccc(N2C(=O)C3C4C=CC(C4)C3C2=O)cc1 (stereo not given) | inconclusive: 72.3%
Cc1ccc2cccc(Oc3ncnc4sc(C)c(C)c34)c2n1 | active: 77.4%
Clc1ccc(-c2nc3cnccn3c2NC2CCCC2)cc1 | inconclusive: 70.5%
COc1ccc(OC)c(NC(=O)c2ccc(-c3cccs3)cc2)c1 | inconclusive: 73.9%
O=C(Nc1ccccc1N1CCOCC1)c1cc(-c2ccco2)nc2ccccc12 | inconclusive: 73.2%
O=C(NC(=S)Nc1nc2c(s1)CCCC2)c1ccc(C(=O)c2ccccc2)cc1 | active: 76.4%
CCOC(=O)c1c(NC(=O)C(=O)N/N=C/c2ccccc2O)sc2c1CCCCC2 | active: 127%
Cc1cc2oc(=O)cc(-c3ccccc3)c2c(C)c1-c1ccc(C(F)(F)F)cc1 | inconclusive: 74.1%
O=S(=O)(O)c1cccc2c(N=Nc3ccc(O)c4ncccc34)cccc12 | inactive: 26.4%
COc1cc2c(cc1NC(=O)Nc1ccc(F)cc1)oc1ccccc12 | inconclusive: 71.6%
C=CCn1c(SCC(=O)c2[nH]c(C)c(C(=O)OC)c2C)nc2scc(-c3ccc(OC)c(OC)c3)c2c1=O | inconclusive: 71.3%
O=C1CCc2cc(Br)ccc2O1 | inactive: -9.34%
CCc1ccc(-c2nc(CN3CCC(C(=O)NCc4ccccc4OC)CC3)c(C)o2)cc1 | inconclusive: 71.1%
COc1cc(OC)c(/C=N/NC(=O)c2ccc(NC(C)=O)cc2)cc1Br | inconclusive: 70.7%
CCC(=O)Nc1c(-c2ccc(OC)cc2)c(=O)c2ccccc2n1C | inactive: -12.6%
Cc1ccc(S(=O)(=O)N2C(=O)C(C)SC2=Nc2ccccc2)cc1 (stereo not given) | inactive: -17.5%

SMILES | inhibition
O=C(CSc1nc(-c2ccc(F)cc2)cc(C(F)(F)F)n1)NCc1ccco1 | inconclusive: 75%
O=C(NCc1ccccc1Cl)C1CCN(C(=O)c2sccc2-n2cccc2)CC1 | inconclusive: 72.9%
Cc1cccc(C2c3[nH]c4ccccc4c3CCN2C(=O)c2noc3c2CCCC3)n1 (stereo not given) | inconclusive: 70.7%
CC(=O)N1CCSc2ccc(S(=O)(=O)NCc3ccc(F)cc3)cc21 | inactive: 13.6%
CC(C)(C)n1nc2c(c1NC(=O)c1ccc(S(=O)(=O)N3CCCC3)cc1)CSC2 | inconclusive: 70.8%
COCCn1c(-c2ccc(OC)cc2)nc2oc3cc(OC)ccc3c(=O)c2c1=O | inconclusive: 72.5%
COc1ccc(OC)c(NC(=O)Nc2ccc(Cl)cc2)c1 | inconclusive: 70.2%
COc1ccccc1/C=C/C=N/NC(=O)Cc1cccn1C | inconclusive: 70.4%
CC(=O)Nc1ccc(S(=O)(=O)NC2=C(N3CCN(Cc4ccccc4)CC3)C(=O)c3ccccc3C2=O)cc1 | inactive: 3.69% and inactive: 9.95%
CCOc1nc(Nc2ccc(OC)c(Cl)c2)nc(N2CCN(c3ccc(OC)cc3)CC2)n1 | active: 78.9%
Cc1nc(C(=O)NNC(=O)c2cccc(Cl)c2)c(C(F)(F)F)o1 | inactive: 2.67%
COc1cc2nc(NC(=O)c3ccc(Cl)cc3)[nH]c(=O)c2cc1OC | inconclusive: 72.2%
N#Cc1ncc(-c2ccc3c(c2)OCCOCCOCCOCCO3)nc1C#N | inactive: -22.3%
COc1ccc(/C=N\NC(=O)c2ccc(Cn3cc(Br)c([N+](=O)[O-])n3)o2)c(OC)c1C | inconclusive: 71.3%
Cc1nn(-c2ccccc2)c2nc(-c3cccs3)cc(C(=O)NN)c12 | active: 83.6%
CC1(C)c2[nH]c3ccccc3c2C[C@@H]2C(=O)N(Cc3ccc(F)cc3)C(=O)N21 | inconclusive: 70.4%
O=S1(=O)c2ccc(Br)cc2N2CC[C@H](C2)N1Cc1ccc(Cl)cc1 | inconclusive: 70.4%
CCOc1ccc2c(c1)C(c1ccc(C)cc1)=NNC(c1ccc(OC)cc1)=N2 | inconclusive: 72.9%
COc1ccc([N+](=O)[O-])cc1NC(=O)CSCc1cc(C)cc(C)c1 | inconclusive: 74.1%
